From PubChem BioAssay AID504339 (National Center for Advancing Translational Sciences (NCATS), 2011)
The whole screen tested about 390,000 compounds, of which about 17,000 (4.4%) were called active. The inconclusive results got no clear call from the source; some entries with a clear call stand among them for comparison. Calls follow the shape of the dose curve; as a rule, active = well fitted inhibition curve with a large enough effect; inconclusive = small, poorly fitted or top-dose-only effect; inactive = no such curve, though single readings can be large or run the other way. A potency beside an inconclusive call is a rough fit, not a confirmed value.

Target: Lysine-specific demethylase 4A (Homo sapiens) (UniProt O75164)
Test: qHTS Assay for Inhibitors of JMJD2A-Tudor Domain; also: nearly all actives have a fitted effect of over 50% in size
Settings: AlphaScreen JMJD2A-Tudor / H3K4me3 peptide binding; series mostly up to 114 µM
Potency is read from the fitted curve at half-maximal effect; tags tell the direction and shape of the fitted curve.

Chain of UniProt O75164 (O75164 whole entry, looked up, the tested form may be a part): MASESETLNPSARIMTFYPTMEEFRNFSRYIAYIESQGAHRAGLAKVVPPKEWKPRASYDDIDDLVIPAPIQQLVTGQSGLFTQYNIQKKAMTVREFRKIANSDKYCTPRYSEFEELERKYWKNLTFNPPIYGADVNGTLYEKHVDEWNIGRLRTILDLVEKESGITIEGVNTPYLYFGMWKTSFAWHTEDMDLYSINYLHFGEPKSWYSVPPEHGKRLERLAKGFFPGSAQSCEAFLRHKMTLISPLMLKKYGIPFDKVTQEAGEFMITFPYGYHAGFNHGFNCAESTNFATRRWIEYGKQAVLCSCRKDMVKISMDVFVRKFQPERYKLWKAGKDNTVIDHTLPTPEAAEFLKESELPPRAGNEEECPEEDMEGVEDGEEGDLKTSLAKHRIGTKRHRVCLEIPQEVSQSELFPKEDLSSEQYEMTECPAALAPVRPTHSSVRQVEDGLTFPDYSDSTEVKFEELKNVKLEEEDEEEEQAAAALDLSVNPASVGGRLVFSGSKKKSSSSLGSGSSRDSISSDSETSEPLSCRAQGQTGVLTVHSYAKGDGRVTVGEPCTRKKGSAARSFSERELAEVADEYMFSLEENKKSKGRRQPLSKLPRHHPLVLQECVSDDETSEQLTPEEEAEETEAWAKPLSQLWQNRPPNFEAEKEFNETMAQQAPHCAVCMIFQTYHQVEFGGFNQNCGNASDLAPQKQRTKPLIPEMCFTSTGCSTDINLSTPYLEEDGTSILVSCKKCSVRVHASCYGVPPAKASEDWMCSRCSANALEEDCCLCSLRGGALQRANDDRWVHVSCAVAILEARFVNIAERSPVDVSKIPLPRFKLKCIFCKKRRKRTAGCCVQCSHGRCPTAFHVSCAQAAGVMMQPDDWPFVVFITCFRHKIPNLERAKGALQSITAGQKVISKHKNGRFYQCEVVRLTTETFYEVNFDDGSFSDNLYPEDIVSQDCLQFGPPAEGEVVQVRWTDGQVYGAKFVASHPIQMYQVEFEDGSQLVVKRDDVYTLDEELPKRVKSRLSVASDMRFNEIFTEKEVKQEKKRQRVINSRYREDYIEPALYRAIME

Potency, active:
O/C=c1\ccc2cccc3nc(C(F)(F)F)nc1c23 89.1 µM, CC(C)OC(=O)Nc1ccc2c(c1)N(C(=O)N1CCN(C)CC1)c1ccccc1CC2 0.891 µM, COC(=O)C1=C(C(=O)OC)C(c2ccc(OC)c(OC)c2)c2sc(=O)[nH]c2S1 (stereo unspecified) 39.8 µM, C=CCn1c(-c2cccc(OCC)c2)n[nH]c1=S 22.4 µM, Fc1ccc(/C=N/n2c(COc3ccccc3)n[nH]c2=S)cc1 56.2 µM, CN(CC(=O)Nc1c(Cl)cccc1Cl)C(=O)c1cccc(-n2cccc2)c1 14.1 µM, CC(=NNC(=S)N1CCN(c2ccccn2)CC1)c1ccccn1 56.2 µM, COc1ccc(Nc2nc(-c3sc(N)nc3C)cs2)cc1 50.1 µM, CC(C)c1nc(=S)n(-c2ccccc2)[nH]1 6.31 µM

Potency, inactive:
COc1ccc(/C=C2\SC(=S)N(CCCC(=O)N3CCN(C)CC3)C2=O)cc1OC, O=C(NCc1ccccc1)C(c1ccco1)N(C(=O)c1csnn1)c1ccccc1 (stereo unspecified), COc1cccc(CNS(=O)(=O)c2ccc(N3CCCCS3(=O)=O)cc2)c1, O=[N+]([O-])c1ccc(S(=O)(=O)NN=CCCc2ccccc2)cc1, O=C(NCCCN1CCCC1)c1ccc2c(Cl)c3c(nc2c1)CCCC3, COc1ccccc1NS(=O)(=O)c1cc([N+](=O)[O-])ccc1N/N=C/c1c[nH]c2ccccc12, N#C/C(=C\c1ccncc1)c1nc2ccccc2[nH]1, Cc1cc(NC(=O)COC(=O)CCNS(=O)(=O)c2ccccc2)n(-c2ccccc2)n1, CSc1nc(-c2ccc(Cl)cc2)c(C#N)c(=O)n1C, COC(=O)CC1C(=O)NCCN1C(=O)CSc1nnc(Nc2ccc(C)cc2)s1 (stereo unspecified), COc1ccccc1-c1cc2nc(C)cc(C)n2n1, CN(C)c1ccc(NC(=O)CN2CCN(CC(=O)Nc3ccc(Br)cc3)CC2)cc1, Cc1ccc(C(=O)OCC(=O)NC(=O)c2ccccc2)o1

Potency, inconclusive:
COc1cccc(CNC(=O)CCCn2nc(C)n3c(cc4sccc43)c2=O)c1 56.2 µM [inhibitor, partial curve, poor fit], COc1ccc(-c2cc(C(=O)N3CCN(c4ccc(F)cc4)CC3)no2)cc1OC 22.4 µM [inhibitor, full curve, poor fit], C/C(=N\NC(=S)Nc1ccccc1C)c1cc2ccccc2o1 28.2 µM [inhibitor, partial curve], COc1ccc(S(=O)(=O)NCCC(=O)NC2CCCCC2C)cc1[N+](=O)[O-] (stereo unspecified) 44.7 µM [inhibitor, partial curve], CC1(C)CC2(CC(c3ccc(F)cc3)c3ccc(O)cc3O2)NC(=S)N1 (stereo unspecified) 79.4 µM [inhibitor, partial curve], COc1ccc(-c2[nH]ncc2CN2CCCN(c3ccccc3)CC2)c(F)c1 56.2 µM [inhibitor, partial curve], COc1ccccc1N1CCN(S(=O)(=O)c2ccc3c4c(cccc24)C(=O)N3)CC1 44.7 µM [inhibitor, partial curve], COc1ccc(C(=O)Nc2nnc(S(=O)(=O)N3CCC(C)CC3)s2)cc1OC 14.1 µM [inhibitor, full curve], Cn1cccc1C(=O)Nc1ccc(Cl)c(S(=O)(=O)N2CCCCC2)c1 22.4 µM [inhibitor, full curve], CCCN(CCC)CCNC(=O)CCC(=O)Nc1ccc2nc(N3CCOCC3)cc(C)c2c1 112 µM [inhibitor, partial curve, poor fit], CC(C)(C)c1ccc(-c2nc(S(=O)(=O)c3ccccc3)c(N3CCOCC3)o2)cc1 50.1 µM [inhibitor, partial curve], O=C(Nc1nnc(C2CC2)s1)c1ccccn1 35.5 µM [inhibitor, full curve, poor fit], CCCCN(CCCNC(=O)CN1C(=O)COc2ccccc21)c1ccccc1 39.8 µM [inhibitor, partial curve], COc1ccc(NS(=O)(=O)c2cccc(C(=O)NCC(c3ccc(OC)cc3)N3CCCC3)c2)cc1 (stereo unspecified) 56.2 µM [inhibitor, partial curve], Cc1cc(N2CCN(C)CC2)ccc1NC(=O)c1c2c(nc3ccccc13)CCN(Cc1ccccc1)C2 28.2 µM [inhibitor, partial curve], C=CCn1c(SCCC(=O)O)nc2c1c(=O)n(C)c(=O)n2C 89.1 µM [inhibitor, single point], O=C(O)CCc1ccc(-c2cccs2)n1Cc1ccco1 56.2 µM [inhibitor, partial curve, poor fit], CN(C)CCCNCC(=O)Nc1ccccc1N1CCOCC1 0.631 µM [inhibitor, full curve, poor fit], COc1ccccc1C(=O)NC(CCSC)C(=O)N1CCN(C/C=C/c2ccccc2)CC1 (stereo unspecified) 89.1 µM [inhibitor, partial curve], COc1ccc(CCNCC(O)COc2c(C)cccc2C)cc1OC (stereo unspecified) 12.6 µM [inhibitor, single point], O=c1cc(-c2ccc(OCc3ccccc3)cc2)oc2cc(OCc3ccccc3)cc(OCc3ccccc3)c12 50.1 µM [inhibitor, partial curve], COc1cc(NC(=S)NC(C)(C)C)c(OC)cc1Cl 56.2 µM [inhibitor, partial curve, poor fit], COCOc1cc(O)c(C(=O)/C=C/c2ccccc2)c(OCOC)c1 50.1 µM [inhibitor, partial curve], Oc1cccc(/C=N/c2c(-c3ccco3)nc3ccccn23)c1 28.2 µM [inhibitor, partial curve]
